Test results taken from PubChem BioAssay AID662 (National Center for Advancing Translational Sciences (NCATS), 2007).
The whole screen tested about 71,000 compounds, of which about 1,800 (2.5%) were called active. This list was built around the results that the source calls inconclusive (neither active nor inactive); the mix of calls is not that of the screen. Calls follow the shape of the dose curve; as a rule, active = well fitted activation curve with a large enough effect in the signal ratio, with a control signal flat (not every such curve was filed as active); inconclusive = small, poorly fitted or top-dose-only effect, or effect the other way, or a change in a side signal; inactive = flat fitted curve, though single readings scatter; the % refers to the signal ratio. Where the call is inconclusive, the potency comes from a doubtful curve fit.

Assay: Cell signaling CRE-BLA (Fsk stim); as to activity change, negative = inhibition: % of control where 0% means no effect
Conditions: CHO CRE-bla reporter (cAMP response element driving beta-lactamase), forskolin EC10, beta-lactamase ratio
Method in brief: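 qHTS titration format; CRE-bla CHO reporter; stimulus EC10 NKH 477, a water-soluble forskolin. Read: CCF4 460/530 nm ratio. Potency expressed as AC50 for activators or inhibitors.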

[1] = activity change, negative = inhibition: at 38.2 µM (top of the series) unless noted
Potency is read from the fitted curve at half-maximal effect; tags tell the direction and shape of the fitted curve.

## C=C1CSc2nc(=O)c3c4c(sc3n21)CCCC4
[1]
  activity change, negative = inhibition: inconclusive: 28%

## COc1ccc(S(=O)(=O)N(C)CC(=O)N2CCC(C(N)=O)CC2)cc1Cl
[1]
  activity change, negative = inhibition: inconclusive: 3.26%

## Cc1csc(SCC(=O)Nc2cc(C(C)(C)C)nn2-c2ccccc2)n1
[1]
  activity change, negative = inhibition: inconclusive: 0.245%

## Cc1nn(Cc2ccccc2)c(C)c1C(=O)OCC(=O)c1cc(C)n(C2CC2)c1C
[1]
  activity change, negative = inhibition: inconclusive: -23.2%

## CCC(=O)N1CCc2cc(OC)c(OC)cc2C1COc1ccc(C(=O)OC)cc1 (centres undefined)
[1]
  Potency: active: 3.98 µM

## CC1(C)CC(=O)C2=C(C1)Nc1nc(SCCN3CCOCC3)[nH]c(=O)c1C2c1cccs1 (centres undefined)
[1]
  activity change, negative = inhibition: inactive

## CCOC(=O)c1cc2ccc(OC(=O)c3ccco3)cc2oc1=O
[1]
  Potency: inconclusive: 0.501 µM [rising, full curve]

## CCOCc1cc(C2NC(=O)NC(C)=C2C(=O)OCC)ccc1OC (centres undefined)
[1]
  Potency: inconclusive: 12.6 µM [rising, partial curve]

## CCOC(=O)N1CCC(N(C(=O)Nc2ccc(CC)cc2)C(C)CC)CC1 (centres undefined)
[1]
  activity change, negative = inhibition: inactive

## O=C1C(C=NCc2ccccn2)=C(O)c2ccccc21
[1]
  Potency: inconclusive: 25.1 µM [rising, single point]

## CC1=C(C(=O)OCc2ccccc2)C(c2ccc(Cl)cc2)NC(=O)N1CCCCCC(=O)O (centres undefined)
[1]
  activity change, negative = inhibition: inconclusive: 12.5%

## COc1cc(-c2nn3c(-c4ccccc4)nnc3s2)cc(OC)c1OC
[1]
  Potency: active: 3.98 µM

## CN(Cc1ccco1)c1nc(-c2ccoc2)nc2ccccc12
[1]
  activity change, negative = inhibition: inconclusive: 16.6%

## CCCCn1c(SCC(=O)OC)nc2c1c(=O)n(C)c(=O)n2C
[1]
  Potency: inconclusive: 12.6 µM [rising, partial curve]

## COC(=O)N1CCC2(CC1)CN(c1ccc(-c3ccccc3)cc1)C2
[1]
  activity change, negative = inhibition: inactive

## Cc1ccc2nc(NC(=O)c3cccs3)sc2c1
[1]
  activity change, negative = inhibition: inactive

## Cc1cc(C)c2c(n1)nn1c(N3CCN(c4cccc(Cl)c4)CC3)cc(C)nc21
[1]
  Potency: inconclusive: 25.1 µM [falling, single point]

## CC(=O)c1cn(CC(=O)Nc2ccccc2)c2ccccc12
[1]
  activity change, negative = inhibition: inconclusive: 25%

## Cc1csc(-c2coc3cc(O)cc(C)c3c2=O)n1
[1]
  Potency: inconclusive: 12.6 µM [rising, partial curve]

## CN(C)Cc1ccccc1-c1nccc(NCc2cccs2)n1
[1]
  activity change, negative = inhibition: inactive

## COc1ccc(CC(=O)Nc2cccc(-c3nnc(-c4ccccc4)o3)c2)cc1OC
[1]
  Potency: inconclusive: 25.1 µM [falling, single point]

## Cc1cccc(C)c1-n1nnnc1SCSc1nnnn1-c1c(C)cccc1C
[1]
  activity change, negative = inhibition: inactive

## Cc1ccc2cc(C(c3nnnn3C3CCCC3)N3CCN(c4ccccc4)CC3)c(=O)[nH]c2c1 (centres undefined)
[1]
  activity change, negative = inhibition: inactive

## Cc1ccc(S(=O)(=O)N2CCC(C(=O)N[C@@H](C)C(=O)NCc3ccccc3)CC2)cc1
[1]
  activity change, negative = inhibition: inconclusive: 29.5%

## Clc1ccc(OCc2nn3c(-c4ccco4)nnc3s2)cc1
[1]
  activity change, negative = inhibition: inconclusive: 21.2%

## COc1ccc(OC)c(-c2cc(C(=O)N3CCN(c4ccccc4)CC3)no2)c1
[1]
  Potency: inconclusive: 10 µM [rising, single point]

## Cc1ccc(-n2c3c(cc(C(=O)NCc4ccco4)c2=O)C(=O)CC(C)(C)C3)cc1
[1]
  Potency: inconclusive: 5.01 µM [falling, single point]

## Cc1ccc(-c2nn(-c3ccccc3)cc2C2SCC(=O)N2Cc2ccccc2)o1 (centres undefined)
[1]
  activity change, negative = inhibition: inconclusive: -2.54%

## CN(C)c1ccc(C(c2nnnn2CCOC(=O)Nc2ccc(Cl)cc2)N2CCOCC2)cc1 (centres undefined)
[1]
  activity change, negative = inhibition: inactive

## COc1ccc(C2CC(=O)c3cnc(N4CCN(Cc5ccccc5)CC4)nc3C2)cc1 (centres undefined)
[1]
  activity change, negative = inhibition: inconclusive: 15.1%

## CCN1C(=S)SC(=O)C1=C1C=C(C)N(Cc2ccco2)C(C)=C1
[1]
  Potency: inconclusive: 3.16 µM [rising, partial curve]

## CCCCC1CC1C(=O)Nc1ncc2c(n1)CC(C)(C)CC2=O (centres undefined)
[1]
  activity change, negative = inhibition: inactive

## Cc1ccc2oc(=O)cc(CN3CCC(C)CC3)c2c1
[1]
  activity change, negative = inhibition: inactive

## COCCN1Cc2cccc(C(=O)Nc3c(C)cc(C)cc3C)c2C1=O
[1]
  Potency: inconclusive: 10 µM [falling, partial curve]

## N#CCCn1c(=O)c(-c2ccc(Cl)cc2)nc2cnc(N3CCNCC3)nc21
[1]
  Potency: inconclusive: 0.316 µM [rising, full curve]

## CCOC(=O)c1ccccc1NC(=O)Cn1cnc2c(cnn2C(C)(C)C)c1=O
[1]
  activity change, negative = inhibition: inconclusive: 5%

## Cc1cnc(CNc2ncnc3ccc(-c4ccoc4)cc23)cn1
[1]
  Potency: inconclusive: 15.8 µM [falling, partial curve]

## O=C1CC(Sc2nnc(-c3ccccc3)o2)C(=O)N1c1ccccc1 (centres undefined)
[1]
  activity change, negative = inhibition: inconclusive: -2.83%

## Nc1ccc(C(=O)C[C@H](N)C(=O)O)cc1O
[1]
  activity change, negative = inhibition: inactive: -6.13% [at 7.6 µM]

## CCCc1nc2oc3c(NCCOCCO)ncnc3c2c2c1COC(C)(C)C2
[1]
  Potency: active: 2 µM

## Cc1cc(C)n(CCOc2ccc(Cl)cc2Cl)n1
[1]
  activity change, negative = inhibition: inconclusive: 17.5%

## CCOC(=O)CC(=O)CSc1nc(-c2cccnc2)cc(C)c1C#N
[1]
  Potency: inconclusive: 12.6 µM [rising, partial curve]

## Cc1c(C(=O)NCCCN2CCOCC2)sc2nc(-c3ccc(F)cc3)cn12
[1]
  activity change, negative = inhibition: inactive

## O=c1[nH]c(SCc2ccc(F)cc2)nc2c1cnn2-c1ccc(F)cc1
[1]
  Potency: active: 3.98 µM

## O=C(CCc1ccc(O)cc1)c1c(O)cc(O)cc1O
[1]
  activity change, negative = inhibition: inconclusive: -18.6%
At 38.2 µM (top of the series)
  activity change, negative = inhibition: inactive: -2.84%

## CCOC(=O)c1ccc(N2C(=O)c3n[nH]c(C)c3C2c2ccccn2)cc1 (centres undefined)
[1]
  activity change, negative = inhibition: inconclusive: 15.3%

## c1ccc(Cn2c(Nn3cnnc3)nc3ccccc32)cc1
[1]
  activity change, negative = inhibition: inconclusive: -6.73%

## CCC1(C)Cc2c(C#N)c(N)n(-c3ccccc3)c(=O)c2CO1 (centres undefined)
[1]
  activity change, negative = inhibition: inactive

## COc1ccccc1-c1cncnc1NCc1cnc(C)cn1
[1]
  activity change, negative = inhibition: inactive

## COc1ccc(S(=O)(=O)N2CCCN(CCC(=O)Nc3cccc(C(F)(F)F)c3)CC2)cc1
[1]
  activity change, negative = inhibition: inconclusive: -6.93%

## O=C1Nc2ccccc2[C@]1(O)Cc1ccccn1
[1]
  activity change, negative = inhibition: inactive: 0.592% [at 7.6 µM]

## COc1cccc(-c2nc(NCc3ccc(OC)cc3OC)c3ccccc3n2)c1
[1]
  activity change, negative = inhibition: inactive

## COc1ccc(-c2ccc(OC)cc2C(=O)O)cc1
[1]
  activity change, negative = inhibition: inconclusive: -5.86%
